Experimental data reported in the supplement of paper PMC4604168 (melanoma cell lines).
The list shows a part of the results. Repeats are few or missing, and single values can be far off.

test system: WM451Lu; assay: cell count relative to DMSO control; melanoma cells; higher = more viable cells; details: library dose: low library concentration; 72 h
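Also: cell number obtained by counting DAPI-stained nuclei in high-throughput microscope images with image analysis software, screen run in 1,536-well plates.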

| SMILES | cell count |
| --- | --- |
| C[C@]1(c2nc3c(C(N)=O)cccc3[nH]2)CCCN1 [Veliparib] + Oc1cc(-c2nc(-c3ccccc3)[nH]c2-c2ccncc2)ccc1Cl [L779450] (first compound 1.4 µM, partner dose 0.2 µM) | 97.9% |
| CO[C@@H]1[C@H](N(C)C(=O)c2ccccc2)C[C@H]2O[C@]1(C)n1c3ccccc3c3c4c(c5c6ccccc6n2c5c31)C(=O)NC4 [Midostaurin] + Cc1cc(N2CCOCC2)cc2[nH]c(-c3c(NC[C@@H](O)c4cccc(Cl)c4)cc[nH]c3=O)nc12 [BMS536924] (first compound 0.08 µM, partner dose 0.2 µM) | 107% |
| C[C@]1(c2nc3c(C(N)=O)cccc3[nH]2)CCCN1 [Veliparib] + O=C(CCCCCCC(=O)Nc1ccccc1)NO [vorinostat] (first compound 1.4 µM, partner dose 0.08 µM) | 91.8% |
| Cc1nc(Nc2ncc(C(=O)Nc3c(C)cccc3Cl)s2)cc(N2CCN(CCO)CC2)n1 [dasatanib] + Cc1cc([N+](=O)[O-])ccc1NS(=O)(=O)c1cc(Cl)ccc1Cl [FH535] (first compound 0.004 µM, partner dose 1 µM) | 86% |
| CO[C@@H]1[C@H](N(C)C(=O)c2ccccc2)C[C@H]2O[C@]1(C)n1c3ccccc3c3c4c(c5c6ccccc6n2c5c31)C(=O)NC4 [Midostaurin] + O=C(O)C(=O)Nc1sc2c(c1C(=O)O)CCNC2 [TCS401] (first compound 0.08 µM, partner dose 1.66667 µM) | 116% |
| C[C@]1(c2nc3c(C(N)=O)cccc3[nH]2)CCCN1 [Veliparib] + OCCn1cc(-c2cnc3nnn(Cc4ccc5ncccc5c4)c3n2)cn1 [PF04217903] (first compound 1.4 µM, partner dose 1 µM) | 124% |
| CO[C@@H]1[C@H](N(C)C(=O)c2ccccc2)C[C@H]2O[C@]1(C)n1c3ccccc3c3c4c(c5c6ccccc6n2c5c31)C(=O)NC4 [Midostaurin] + CN(NC(=O)CC(=O)NN(C)C(=S)c1ccccc1)C(=S)c1ccccc1 [STA4783] (first compound 0.08 µM, partner dose 0.006 µM) | 93.5% |
| NC(=O)Nc1cc(-c2cccc(F)c2)sc1C(=O)N[C@H]1CCCNC1 + CCc1ccc(CCOc2ccc(CC3SC(=O)NC3=O)cc2)nc1 [pioglitazone] (first compound 0.02 µM, partner dose 2 µM) | 100% |
| CN(C)S(=O)(=O)c1ccc2c(c1)/C(=C/c1cc3c([nH]1)CCCC3)C(=O)N2 + CC(C)CCN1c2nc(Nc3cc(F)c(O)c(F)c3)ncc2N(C)C(=O)C1C [BID1870] (first compound 0.4 µM, partner dose 0.2 µM) | 101% |
| C=CCn1c(=O)c2cnc(Nc3ccc(N4CCN(C)CC4)cc3)nc2n1-c1cccc(C(C)(C)O)n1 + CCCCCCCCCCCC1=C(O)C(=O)C=C(O)C1=O [Embelin] (first compound 0.02 µM, partner dose 1.2 µM) | 111% |
| CO[C@@H]1[C@H](N(C)C(=O)c2ccccc2)C[C@H]2O[C@]1(C)n1c3ccccc3c3c4c(c5c6ccccc6n2c5c31)C(=O)NC4 [Midostaurin] + CCN(CC)CCCCNc1ncc2cc(-c3cc(OC)cc(OC)c3)c(NC(=O)NC(C)(C)C)nc2n1 [PD173074] (first compound 0.08 µM, partner dose 0.1 µM) | 111% |
| CO[C@@H]1[C@H](N(C)C(=O)c2ccccc2)C[C@H]2O[C@]1(C)n1c3ccccc3c3c4c(c5c6ccccc6n2c5c31)C(=O)NC4 [Midostaurin] + O=C1NC(=O)/C(=C/c2ccc(-c3ccc(F)cc3O)o2)S1 [AS252424] (first compound 0.08 µM, partner dose 1 µM) | 96.1% |
| OCCn1cc(-c2cnc3nnn(Cc4ccc5ncccc5c4)c3n2)cn1 + CCc1ccc(CCOc2ccc(CC3SC(=O)NC3=O)cc2)nc1 [pioglitazone] (first compound 1 µM, partner dose 2 µM) | 95.1% |
| C[C@]1(c2nc3c(C(N)=O)cccc3[nH]2)CCCN1 [Veliparib] + CC1(C)NC(=O)N(c2ccc([N+](=O)[O-])c(C(F)(F)F)c2)C1=O [nilutamide] (first compound 1.4 µM, partner dose 1 µM) | 118% |
| Cc1nc(Nc2ncc(C(=O)Nc3c(C)cccc3Cl)s2)cc(N2CCN(CCO)CC2)n1 [dasatanib] + COc1cc(Nc2ncc(F)c(Nc3ccc4c(n3)NC(=O)C(C)(C)O4)n2)cc(OC)c1OC [Tamatinib] (first compound 0.004 µM, partner dose 0.4 µM) | 58% |
| CN(C)S(=O)(=O)c1ccc2c(c1)/C(=C/c1cc3c([nH]1)CCCC3)C(=O)N2 + COC(=O)c1sccc1S(=O)(=O)Nc1ccc(Nc2ccccc2)cc1OC [GSK0660] (first compound 0.4 µM, partner dose 1 µM) | 99.8% |
| CN(C)S(=O)(=O)c1ccc2c(c1)/C(=C/c1cc3c([nH]1)CCCC3)C(=O)N2 + NCC(=O)Nc1ccc(-n2nc(C(F)(F)F)cc2-c2ccc3c(ccc4ccccc43)c2)cc1 [OSU03012] (first compound 0.4 µM, partner dose 1 µM) | 58.7% |
